In the supplement of paper PMC8728848:
Some of the results follow.

Experiments:
Test in all cases: glycan array binding signal (z-score within array); higher = stronger binding
Conditions in all cases: glycan notation: IUPAC condensed, linker removed
[1] = target: Fuc(a1-2)Gal(b1-4)[Fuc(a1-3)]GlcNAc
In short: (§1)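 Negative Z-scores can be read as non-binding. The Z-score is calculated within each array and then averaged across arrays of one protein sequence at different concentrations or buffers and across linkers. Arrays, 3228 in all, were curated from the Consortium for Functional Glycomics database and kept only where the protein sequence was available.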

[2] = target: Fuc(a1-2)Gal(b1-4)[Fuc(a1-3)]GlcNAc(b1-2)Man(a1-3)[Fuc(a1-2)Gal(b1-4)[Fuc(a1-3)]GlcNAc(b1-2)Man(a1-6)]Man(b1-4)GlcNAc(b1-4)GlcNAc
In short: as §1

[3] = target: Fuc(a1-2)Gal(b1-4)[Fuc(a1-3)]GlcNAc(b1-2)[Fuc(a1-2)Gal(b1-4)[Fuc(a1-3)]GlcNAc(b1-4)]Man(a1-3)[Fuc(a1-2)Gal(b1-4)[Fuc(a1-3)]GlcNAc(b1-2)Man(a1-6)]Man(b1-4)GlcNAc(b1-4)GlcNAc
In short: as §1

[4] = target: Fuc(a1-2)Gal(b1-4)[Fuc(a1-3)]GlcNAc(b1-3)Gal(b1-4)[Fuc(a1-3)]GlcNAc
In short: as §1

[5] = target: Fuc(a1-2)Gal(b1-4)[Fuc(a1-3)]GlcNAc(b1-3)Gal(b1-4)[Fuc(a1-3)]GlcNAc(b1-3)Gal(b1-4)[Fuc(a1-3)]GlcNAc
In short: as §1

[6] = target: Fuc(a1-2)Gal(b1-4)[Fuc(a1-3)]GlcNAc(b1-3)GalNAc
In short: as §1

[7] = target: Fuc(a1-2)Gal6S(b1-4)Glc
In short: as §1

[8] = target: Fuc(a1-2)Gal6S(b1-4)Glc6S
In short: as §1

[9] = target: Fuc(a1-2)Gal6S(b1-4)GlcNAc
In short: as §1

[10] = target: Fuc(a1-2)[Gal(a1-3)]Gal
In short: as §1

[11] = target: Fuc(a1-2)[Gal(a1-3)]Gal(b1-3)GalNAc
In short: as §1

[12] = target: Fuc(a1-2)[Gal(a1-3)]Gal(b1-3)GlcNAc
In short: as §1

[13] = target: Fuc(a1-2)[Gal(a1-3)]Gal(b1-3)GlcNAc(b1-2)Man(a1-3)[Fuc(a1-2)[Gal(a1-3)]Gal(b1-3)GlcNAc(b1-2)Man(a1-6)]Man(b1-4)GlcNAc(b1-4)GlcNAc
In short: as §1

[14] = target: Fuc(a1-2)[Gal(a1-3)]Gal(b1-3)GlcNAc(b1-2)Man(a1-3)[Fuc(a1-2)[Gal(a1-3)]Gal(b1-3)GlcNAc(b1-2)Man(a1-6)]Man(b1-4)GlcNAc(b1-4)[Fuc(a1-6)]GlcNAc
In short: as §1

[15] = target: Fuc(a1-2)[Gal(a1-3)]Gal(b1-3)GlcNAc(b1-3)GalNAc
In short: as §1

[16] = target: Fuc(a1-2)[Gal(a1-3)]Gal(b1-4)Glc
In short: as §1

[17] = target: Fuc(a1-2)[Gal(a1-3)]Gal(b1-4)GlcNAc
In short: as §1

[18] = target: Fuc(a1-2)[Gal(a1-3)]Gal(b1-4)GlcNAc(b1-2)Man(a1-3)[Fuc(a1-2)[Gal(a1-3)]Gal(b1-4)GlcNAc(b1-2)Man(a1-6)]Man(b1-4)GlcNAc(b1-4)GlcNAc
In short: as §1

[19] = target: Fuc(a1-2)[Gal(a1-3)]Gal(b1-4)GlcNAc(b1-2)Man(a1-3)[Fuc(a1-2)[Gal(a1-3)]Gal(b1-4)GlcNAc(b1-2)Man(a1-6)]Man(b1-4)GlcNAc(b1-4)[Fuc(a1-6)]GlcNAc
In short: as §1

[20] = target: Fuc(a1-2)[Gal(a1-3)]Gal(b1-4)GlcNAc(b1-3)GalNAc
In short: as §1

[21] = target: Fuc(a1-2)[Gal(a1-3)]Gal(b1-4)[Fuc(a1-3)]Glc
In short: as §1

[22] = target: Fuc(a1-2)[Gal(a1-3)]Gal(b1-4)[Fuc(a1-3)]GlcNAc
In short: as §1

[23] = target: Fuc(a1-2)[Gal(a1-3)]Gal(b1-4)[Fuc(a1-3)]GlcNAc(b1-3)GalNAc
In short: as §1

[24] = target: Fuc(a1-2)[Gal(a1-4)]Gal(b1-4)GlcNAc
In short: as §1

[25] = target: Fuc(a1-2)[GalNAc(a1-3)]Gal
In short: as §1

[26] = target: Fuc(a1-2)[GalNAc(a1-3)]Gal(b1-3)GalNAc(a1-3)[Fuc(a1-2)]Gal(b1-4)GlcNAc
In short: as §1

[27] = target: Fuc(a1-2)[GalNAc(a1-3)]Gal(b1-3)GlcNAc
In short: as §1

[28] = target: Fuc(a1-2)[GalNAc(a1-3)]Gal(b1-3)GlcNAc(b1-2)Man(a1-3)[Fuc(a1-2)[GalNAc(a1-3)]Gal(b1-3)GlcNAc(b1-2)Man(a1-6)]Man(b1-4)GlcNAc(b1-4)GlcNAc
In short: as §1

[29] = target: Fuc(a1-2)[GalNAc(a1-3)]Gal(b1-3)GlcNAc(b1-2)Man(a1-3)[Fuc(a1-2)[GalNAc(a1-3)]Gal(b1-3)GlcNAc(b1-2)Man(a1-6)]Man(b1-4)GlcNAc(b1-4)[Fuc(a1-6)]GlcNAc
In short: as §1

[30] = target: Fuc(a1-2)[GalNAc(a1-3)]Gal(b1-3)GlcNAc(b1-3)GalNAc
In short: as §1

[31] = target: Fuc(a1-2)[GalNAc(a1-3)]Gal(b1-4)Glc
In short: as §1

[32] = target: Fuc(a1-2)[GalNAc(a1-3)]Gal(b1-4)GlcNAc
In short: as §1

[33] = target: Fuc(a1-2)[GalNAc(a1-3)]Gal(b1-4)GlcNAc(b1-2)Man(a1-3)[Fuc(a1-2)[GalNAc(a1-3)]Gal(b1-4)GlcNAc(b1-2)Man(a1-6)]Man(b1-4)GlcNAc(b1-4)GlcNAc
In short: as §1

[34] = target: Fuc(a1-2)[GalNAc(a1-3)]Gal(b1-4)GlcNAc(b1-2)Man(a1-3)[Fuc(a1-2)[GalNAc(a1-3)]Gal(b1-4)GlcNAc(b1-2)Man(a1-6)]Man(b1-4)GlcNAc(b1-4)[Fuc(a1-6)]GlcNAc
In short: as §1

[35] = target: Fuc(a1-2)[GalNAc(a1-3)]Gal(b1-4)GlcNAc(b1-3)Gal(b1-4)GlcNAc
In short: as §1

[36] = target: Fuc(a1-2)[GalNAc(a1-3)]Gal(b1-4)GlcNAc(b1-3)Gal(b1-4)GlcNAc(b1-3)Gal(b1-4)GlcNAc
In short: as §1

[37] = target: Fuc(a1-2)[GalNAc(a1-3)]Gal(b1-4)GlcNAc(b1-3)GalNAc
In short: as §1

[38] = target: Fuc(a1-2)[GalNAc(a1-3)]Gal(b1-4)[Fuc(a1-3)]GlcNAc
In short: as §1

[39] = target: Fuc(a1-2)[GalNAc(a1-3)]Gal(b1-4)[Fuc(a1-3)]GlcNAc(b1-3)GalNAc
In short: as §1

[40] = target: Fuc(a1-2)[GalNAc(a1-4)]Gal(b1-4)GlcNAc
In short: as §1

[41] = target: Fuc(a1-2)[GalNAc(b1-3)]Gal
In short: as §1

[42] = target: Fuc(a1-3)GlcNAc
In short: as §1

[43] = target: Fuc(a1-3)[Gal(b1-4)]Glc6S
In short: as §1

[44] = target: Fuc(a1-3)[Gal(b1-4)]GlcNAc
In short: as §1

[45] = target: Fuc(a1-3)[Gal(b1-4)]GlcNAc(b1-2)Man(a1-3)[Fuc(a1-3)[Gal(b1-4)]GlcNAc(b1-2)Man(a1-6)]Man(b1-4)GlcNAc(b1-4)GlcNAc
In short: as §1

B1: Eosinophil cationic protein (ECP) (Homo sapiens), P12724 (protein)
chain: MVPKLFTSQICLLLLLGLMGVEGSLHARPPQFTRAQWFAIQHISLNPPRCTIAMRAINNYRWRCKNQNTFLRTTFANVVNVCGNQSIRCPHNRTLNNCHRSRFRVPLLHCDLINPGAQNISNCTYADRPGRRFYVVACDNRDPRDSPRYPVVPVHLDTTI
glycan array binding signal (z-score) [1]: 0.112
glycan array binding signal (z-score) [2]: 0.735
glycan array binding signal (z-score) [3]: 0.28
glycan array binding signal (z-score) [4]: 0.014
glycan array binding signal (z-score) [5]: -0.094
glycan array binding signal (z-score) [6]: 2.14
glycan array binding signal (z-score) [7]: -0.036
glycan array binding signal (z-score) [8]: 1.17
glycan array binding signal (z-score) [9]: -0.39
glycan array binding signal (z-score) [10]: -0.178
glycan array binding signal (z-score) [11]: 0.048
glycan array binding signal (z-score) [12]: 0.103
glycan array binding signal (z-score) [13]: 0.257
glycan array binding signal (z-score) [14]: 0.234
glycan array binding signal (z-score) [15]: -0.146
glycan array binding signal (z-score) [16]: -0.348
glycan array binding signal (z-score) [17]: -0.144
glycan array binding signal (z-score) [18]: 0.306
glycan array binding signal (z-score) [19]: -0.023
glycan array binding signal (z-score) [20]: 0.505
glycan array binding signal (z-score) [21]: -0.455
glycan array binding signal (z-score) [22]: 0.847
glycan array binding signal (z-score) [23]: 0.524
glycan array binding signal (z-score) [24]: -0.421
glycan array binding signal (z-score) [25]: -0.298
glycan array binding signal (z-score) [26]: -0.464
glycan array binding signal (z-score) [27]: -0.57
glycan array binding signal (z-score) [28]: -0.506
glycan array binding signal (z-score) [29]: -0.378
glycan array binding signal (z-score) [30]: 1.06
glycan array binding signal (z-score) [31]: -0.028
glycan array binding signal (z-score) [32]: -0.271
glycan array binding signal (z-score) [33]: -0.389
glycan array binding signal (z-score) [34]: -0.524
glycan array binding signal (z-score) [35]: 0.068
glycan array binding signal (z-score) [36]: -0.346
glycan array binding signal (z-score) [37]: 0.062
glycan array binding signal (z-score) [38]: 0.326
glycan array binding signal (z-score) [39]: 1.18
glycan array binding signal (z-score) [40]: -0.287
glycan array binding signal (z-score) [41]: -0.498
glycan array binding signal (z-score) [42]: -0.717
glycan array binding signal (z-score) [43]: 0.016
glycan array binding signal (z-score) [44]: -0.392
glycan array binding signal (z-score) [45]: -0.346
